Screen size: about 310,000 compounds; about 2,200 (0.71%) showed an effect of 50% or more. Effects have a minus sign here. This is one part of the list.
target: human ether-à-go-go-related gene (hERG) potassium channel (human, UniProt Q12809); assay: primary screen, population patch clamp on CHO cells stably expressing hERG
Sequence (Q12809 whole entry, looked up): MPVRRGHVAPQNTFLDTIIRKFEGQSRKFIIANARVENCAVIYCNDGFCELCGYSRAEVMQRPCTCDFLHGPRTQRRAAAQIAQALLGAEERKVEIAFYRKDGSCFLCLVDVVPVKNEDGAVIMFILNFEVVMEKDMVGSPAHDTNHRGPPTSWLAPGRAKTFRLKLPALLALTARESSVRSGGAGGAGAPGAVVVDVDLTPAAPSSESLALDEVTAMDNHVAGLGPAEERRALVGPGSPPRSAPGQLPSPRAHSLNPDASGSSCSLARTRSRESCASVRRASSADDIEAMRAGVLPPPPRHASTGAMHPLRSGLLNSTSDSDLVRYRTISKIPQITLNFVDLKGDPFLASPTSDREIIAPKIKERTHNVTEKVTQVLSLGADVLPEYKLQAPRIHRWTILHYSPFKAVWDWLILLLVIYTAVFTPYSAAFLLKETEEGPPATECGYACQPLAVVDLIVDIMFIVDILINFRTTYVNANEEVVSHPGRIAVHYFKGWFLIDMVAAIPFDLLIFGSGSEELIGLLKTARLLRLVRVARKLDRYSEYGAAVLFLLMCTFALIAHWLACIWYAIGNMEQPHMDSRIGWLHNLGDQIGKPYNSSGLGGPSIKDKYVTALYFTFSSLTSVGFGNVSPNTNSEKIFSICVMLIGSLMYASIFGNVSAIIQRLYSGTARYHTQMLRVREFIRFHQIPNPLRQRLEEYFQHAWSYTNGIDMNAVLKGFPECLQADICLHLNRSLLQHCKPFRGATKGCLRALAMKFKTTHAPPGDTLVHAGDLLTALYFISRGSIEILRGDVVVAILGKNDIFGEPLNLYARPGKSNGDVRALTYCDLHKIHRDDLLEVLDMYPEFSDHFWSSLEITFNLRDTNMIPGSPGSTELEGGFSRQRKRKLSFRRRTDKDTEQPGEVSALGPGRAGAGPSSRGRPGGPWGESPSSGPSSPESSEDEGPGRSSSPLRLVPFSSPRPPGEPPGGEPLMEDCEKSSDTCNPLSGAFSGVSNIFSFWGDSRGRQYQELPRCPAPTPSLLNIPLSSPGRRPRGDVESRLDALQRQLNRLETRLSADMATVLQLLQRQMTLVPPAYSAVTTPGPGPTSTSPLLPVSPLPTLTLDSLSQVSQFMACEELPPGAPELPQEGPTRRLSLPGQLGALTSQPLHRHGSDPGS

| Structure (SMILES) | hERG current change (%, negative = inhibition) at 1uM |
| --- | --- |
| C=CCN1CCN(C(=O)CCCc2ccccc2)CC1 | 15.5% |
| Cc1oc2ccc(NS(=O)(=O)c3ccc(F)cc3)cc2c1C(=O)O | 13.1% |
| Cc1ccccc1OCC(O)Cn1c(N2CCCCC2)nc2c1c(=O)[nH]c(=O)n2C (stereo not drawn) | 8.88% |
| O/N=C(\CN1CCCCC1)c1ccccc1 | 10.5% |
| CN1CCN(C(=O)/C(=C/c2cn(C)c3ccccc23)NC(=O)c2ccccc2)CC1 | 23.6% |
| COc1ccc(C2CC(c3ccccc3O)=NN2C(=O)c2ccccc2)cc1OC (stereo not drawn) | 10.3% |
| O=C(CCCN1C(=O)/C(=C/c2ccccc2)SC1=S)Nc1cccc(O)c1 | 12.3% |
| NC(=O)c1c(NC(=O)c2ccncc2)sc2c1CCCCCC2 | 10.5% |
| CC(C)(CC(=O)O)CC(=O)Nc1cc(C(F)(F)F)cc(C(F)(F)F)c1 | 12.2% |
| O=C(/C=C/c1cccs1)c1ccc(NC(=O)c2cccc(Br)c2)cc1 | 11.4% |
| N#Cc1ccc(-c2csc(NC(=O)c3ccc(S(=O)(=O)N4CCc5ccccc5C4)cc3)n2)cc1 | -0.202% |
| CN1CCCN(C(c2ccccc2)c2ccc(Cl)cc2)CC1.Cl (stereo not drawn) | -43.3% |
| COc1ccc(C(=O)O)cc1S(=O)(=O)NC(C)C | 9.53% |
| Cc1ccc2nc(SCc3ccccc3)c(C=O)c(=O)n2c1 | 9.07% |
| CCOc1ccc(N2C(=O)CC(SC(=NC)Nc3ccc(F)cc3)C2=O)cc1 (stereo not drawn) | 0.76% |
| CCOC(=O)N1CCN(c2cc(=O)n(-c3cccc(Br)c3)c(=O)[nH]2)CC1 | 14.7% |
| CCN(CC)c1ccc(/C=C2\CCC(/C=N/NC(=O)c3ccc(=O)n(C)c3)=C2N2CCOCC2)cc1 | 12.8% |
| N#CC(=C=[N-])/C=C(\C(=O)c1ccccc1)[n+]1ccccc1 | 13.9% |
| O=C(COC(=O)c1cc(S(=O)(=O)N2CCOCC2)ccc1Cl)NC1CC1 | 12% |

| Structure (SMILES) | hERG current change (%, negative = inhibition) at 1uM |
| --- | --- |
| CCOc1ccccc1NS(=O)(=O)c1ccc(-c2cnc(C3CC3)o2)cc1 | 13.6% |
| O=C(N/N=C\c1ccc([N+](=O)[O-])s1)c1cncc(Br)c1 | 8.45% |
| Cc1ccc(SCCC(=O)OCC(=O)Nc2ccc(C(N)=O)cc2)cc1 | 6.02% |
| COc1ccc(S(=O)(=O)Nc2c(C)cccc2C)cc1-n1cnnn1 | 8.44% |
| O=C(CSc1ccccc1)Nc1ccccc1N1CCOCC1 | -0.599% |
| CC1=Nn2c(nnc2-c2ccccc2Cl)SC1 | 19.7% |
| O=C(CSc1nc2ccccc2[nH]1)NCCc1ccc(Cl)cc1 | 9.95% |
| Cc1cc(C(=O)CSc2ccc(F)cc2)cc(C)c1O | 8.64% |
| O=C(COC(=O)CNS(=O)(=O)c1ccccc1)Nc1ncc(Cl)cc1Cl | 4.68% |
| Cc1ccc(CNc2ccc3c(c2)nc(C)n3C)cc1 | 8.36% |
| O=C(CN(C(=O)c1csnn1)c1cccc(C(F)(F)F)c1)NCCc1ccccc1 | 15.4% |
| Cc1ccc(C)c(Cn2c(C)nc3c(sc(=S)n3-c3ccccc3)c2=O)c1 | 3.59% |
| O=C(c1ccccc1)n1ccc(-c2cccs2)n1 | 15.5% |
| CCOC(=O)c1cccc(NC(=O)CSc2nnc(C)n2CC2CCCO2)c1 (stereo not drawn) | 12.3% |
| CCOC(=O)c1cc(-c2ccccc2)sc1NC(=O)C(C)Sc1nnc(C)s1 (stereo not drawn) | 12% |
| Cc1cccc(-c2nnn(C/C(N)=N/O)n2)c1 | 3.25% |
| COC(=O)c1ccccc1NC(=O)CN(C1CCCCC1)S(C)(=O)=O | -4.34% |
| COc1ccc(C(CNC(=O)C(C)(C)Oc2ccc(Cl)cc2)N2CCCCC2)cc1 (stereo not drawn) | -15.9% |
| CCC(Oc1ccc(C)c(C)c1)C(=O)O (stereo not drawn) | 8.88% |

| Structure (SMILES) | hERG current change (%, negative = inhibition) at 1uM |
| --- | --- |
| COc1ccc(C(=O)Oc2c(C)occc2=O)cc1OC | 7.03% |
| COc1ccc(/C=N/NC(=O)CCOc2ccccc2C)cc1OC | -2.76% |
| CC(Sc1ccccn1)C(=O)Nc1ccc2c(c1)OCCO2 (stereo not drawn) | 0.136% |
| O=C(CN(C(=O)c1csnn1)c1cccc(Cl)c1)NC1CCCCC1 | 6.55% |
| COc1cc(/C=C/C(=O)O)cc(S(=O)(=O)N2CCc3ccccc32)c1OC | 2.85% |
| Cc1ccccc1-c1nnc(SCC(=O)N(C)c2c(N)n(Cc3ccccc3)c(=O)[nH]c2=O)n1C | 14.6% |
| O=C1NCCN/C1=C\C(=O)c1ccccc1 | -0.802% |
| S=C(Nc1cccc(Cl)c1Cl)Nn1cnnc1 | 12.7% |
| CCCc1cc(=O)oc2cc(OCC(=O)NCc3cccs3)ccc12 | 0.211% |
| COc1ccc(C(=O)On2c(-c3ccc(Br)cc3)nc3ccccc3c2=O)cc1 | 2.62% |
| CCn1c(SCC(=O)N/N=C/c2ccncc2)nc2ccccc21 | 6.75% |
| O=C(Nc1ccc(F)cc1)c1ccccc1Oc1ccc(C(F)(F)F)cc1[N+](=O)[O-] | 3.81% |
| CCc1nnc(NC(=O)C2CCC(CNc3c(N4CCC(C)CC4)c(=O)c3=O)CC2)s1 (stereo not drawn) | 25.6% |
| CCCCc1nc2cc(C(=O)N3CCNC(=O)C3)ccc2o1 | 14.8% |
| CCn1c(SCc2cccc(C)c2)nnc1-c1ccccc1 | 14.2% |
| Cc1onc(-c2ccccc2)c1C(=O)Nc1ccc(Cl)cn1 | 10.1% |
| COCCN(C(=O)COC(=O)c1nc(Cl)ccc1Cl)c1c(N)n(Cc2ccccc2)c(=O)[nH]c1=O | 20.3% |
| COc1ccc(CN2CCOCCOCCOCCOCC2)cc1 | -6.82% |
| Cn1c(=O)n(C)c2cc(C(=O)O)ccc21 | -13.6% |
